The record followed here is PMC6919601, “Identification of Plasmodium dipeptidyl aminopeptidase allosteric inhibitors by high throughput screening” (PLoS ONE, 2019).

Molecules are shown by their SMILES. Among all 110,000 compounds or so, about 230 (0.21%) showed an effect of 50% or more. The list shows a part of the results.
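Also: 30 min substrate incubation versus DMSO and 10 µM JCP410 controls.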

The target of the experiment is DPAP1 (Plasmodium falciparum, UniProt Q8IIJ9). Nature of the experiment: primary screen, percent inhibition; read by cleavage of a fluorogenic dipeptide substrate; higher = more effect of the substance. Also on record: species or system P. falciparum D10 trophozoite lysates; single well.
Chain of DPAP1 (Q8IIJ9 whole entry, looked up): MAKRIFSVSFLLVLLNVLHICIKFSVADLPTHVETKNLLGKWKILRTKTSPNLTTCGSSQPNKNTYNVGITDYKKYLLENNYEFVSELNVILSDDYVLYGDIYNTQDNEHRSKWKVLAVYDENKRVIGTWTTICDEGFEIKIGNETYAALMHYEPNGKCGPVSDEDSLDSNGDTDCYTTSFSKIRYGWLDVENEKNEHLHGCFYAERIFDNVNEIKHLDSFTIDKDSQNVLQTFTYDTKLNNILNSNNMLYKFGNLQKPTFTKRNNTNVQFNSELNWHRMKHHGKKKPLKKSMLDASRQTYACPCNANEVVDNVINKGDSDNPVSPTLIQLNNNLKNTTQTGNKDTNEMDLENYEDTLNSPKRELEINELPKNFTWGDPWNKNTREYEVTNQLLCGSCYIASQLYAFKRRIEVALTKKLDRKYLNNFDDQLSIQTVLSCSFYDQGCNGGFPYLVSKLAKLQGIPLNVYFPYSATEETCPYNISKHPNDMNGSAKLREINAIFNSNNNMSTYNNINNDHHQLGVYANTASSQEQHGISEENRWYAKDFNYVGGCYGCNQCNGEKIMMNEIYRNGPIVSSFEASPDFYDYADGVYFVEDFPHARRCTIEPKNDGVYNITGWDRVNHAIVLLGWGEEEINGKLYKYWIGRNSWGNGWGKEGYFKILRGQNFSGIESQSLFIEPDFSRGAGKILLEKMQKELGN
`COc1ccc(S(=O)(=O)N(CC(=O)Nc2cccnc2)c2ccccc2)cc1OC`: the “% Inhibition @ 10 uM” value is -3.71%. Under `CCNC(=O)c1ccc(-c2nc(CS(=O)(=O)c3ccccc3)c(C)o2)cc1` stands -0.591%.

In the case of `CCOC(=O)N1CCC(/N=c2\c(O)c(O)\c2=N/CCCN(CC)CC)CC1`, the “% Inhibition @ 10 uM” value came out at 5.09%. For `Cc1oc(-c2ccccc2Cl)nc1CSCC(=O)NCc1cccnc1` the value was -2.85%; for `O=C(NC1CCCc2ccccc21)C1CCN(c2cnccn2)CC1` (stereo not shown), 2.41%; for `Cc1ccc(-n2nc(C)c3c(C(=O)NC(C)C)cc(C)nc32)cc1`, 1.12%. As for `Cc1occc1C(=O)Nc1sc2c(c1C(N)=O)CCCCC2`, the “% Inhibition @ 10 uM” value came to 3.76%.

Take `Cc1ccccc1OCC(=O)Nc1cccc(N2C(=O)c3cccc([N+](=O)[O-])c3C2=O)c1`: the “% Inhibition @ 10 uM” value is -6.83%. For the molecule `Cc1cccc(NC(=O)c2sc3ncn(CC(=O)N4CCCCC4C)c(=O)c3c2C)n1` (stereo not shown), the “% Inhibition @ 10 uM” value was -3.93%.

Regarding `COc1ccc(-c2noc(N3CC(C)CC(C)C3)n2)cc1OC` (stereo not shown), the “% Inhibition @ 10 uM” value is on record as 5.7%. Turning to `O=C(CNC(=S)N(Cc1ccccc1)Cc1cccs1)NCc1ccc(F)cc1`, the “% Inhibition @ 10 uM” value is given as -7.73%.

For the molecule `Cc1ccc(C(=O)Nc2sc(C)c(C)c2C(=O)O)cc1`, the “% Inhibition @ 10 uM” value was determined as 3.06%. Under `Clc1ccc(N2CCN(C3CCSC3)CC2)cc1` (stereo not shown) stands 1.88%; under `COc1ccc2c(CNCCc3ccccc3Cl)c(C(=O)O)n(C)c2c1`, 0.984%; under `CCCCNC(=O)c1cn(C)c(=O)c2cc(OC)c(OC)cc12`, -5.67%.

On to `O=C(CN(c1ccc(F)cc1)S(=O)(=O)c1ccc2c(c1)OCCO2)NCC1CCCO1` (stereo not shown), for which the “% Inhibition @ 10 uM” value is listed as -2.54%. For `COc1ccc(C(=O)c2cc3ccccc3cc2O)cc1` the value was -5.1%. Regarding `CCOc1ccc(NC(=O)CN(c2ccccc2CC)S(C)(=O)=O)cc1`, the “% Inhibition @ 10 uM” value amounted to 2.02%.

Turning to `Cc1cc(C)c2cccc(NC(=O)c3ccc(Cl)cc3)c2n1`, the “% Inhibition @ 10 uM” value is -1.22%. For `CCn1c(CO)nc2ccccc21` the value was -2.28%; for `COC(=O)c1cc(N2CCNCC2)nc2ccccc12`, 1.84%. Under `CC(C)CC(=O)n1nc(-c2ccco2)nc1NCc1ccccc1Cl` stands -2.92%. Turning to `COc1ccc2c(CNCC(C)c3ccccc3)c(C(=O)O)n(Cc3ccc(C)cc3)c2c1` (stereo not shown), the “% Inhibition @ 10 uM” value was 7.63%. For `COc1cc(OC)c(C2C=C(c3ccc(Cl)cc3)Nc3nnnn32)cc1OC` (stereo not shown) the value was 3.32%; for `Cn1ccnc1C(=O)c1ccccc1C(=O)c1ccccc1`, -1.72%; for `CCC(C)NC(=O)c1cc(S(=O)(=O)N2CCCCC2)c[nH]1` (stereo not shown), -8.86%. Regarding `CNS(=O)(=O)c1cn(CC(=O)N2CCOCC2)cc1S(=O)(=O)NC`, the “% Inhibition @ 10 uM” value is -4.18%. Under `Cc1cccc(N(CC(=O)NCC2CCCO2)S(=O)(=O)c2ccccc2)c1C` (stereo not shown) stands 5.92%.

For `CN1C(=O)c2ccccc2C(C(=O)O)C1c1c[nH]c2ccccc12` (stereo not shown), the “% Inhibition @ 10 uM” value is on record as -1.51%. Under `COc1cc(C2C(C#N)=C(N)Oc3[nH]nc(C)c32)cc(Br)c1OCc1ccccc1` (stereo not shown) stands -0.178%; under `COc1ccc(C2NC(c3ccc(OC)c(OC)c3OC)C(C)C(=O)C2C)c(OC)c1OC` (stereo not shown), -0.326%; under `CC(=O)Nc1ccc2c(c1)C1C=CCC1C(C1CC=CCC1)N2` (stereo not shown), 9.53%. For `Cc1ccccc1CNC(=O)C1COc2ccccc2O1` (stereo not shown) the value was -2.15%. On to `CN(C)CCN(C)Cc1ccccc1Sc1ccc2c(c1)OCO2`, for which the “% Inhibition @ 10 uM” value was -2.65%.

As to `CCc1ccc(-c2nc(CSCC(=O)N3CCN(CC)CC3)c(C)o2)cc1`, the “% Inhibition @ 10 uM” value is reported as -4.71%. As for `Cc1onc(-c2ccccc2Cl)c1C(=O)NCc1ccccn1`, the “% Inhibition @ 10 uM” value is -3.09%. Regarding `CC(=O)Nc1ccc(NC(=O)c2ccc(C)c(Br)c2)cc1`, the “% Inhibition @ 10 uM” value was -1.61%. Under `CCC(O)CC(c1ccccc1)c1c(O)oc2ccccc2c1=O` (stereo not shown) stands -4.35%; under `COc1ccc(N2CCN(C(=O)Nc3ccccc3)CC2)cc1`, 2.44%; under `O=C(Nc1ccc(S(=O)(=O)N2CCCCC2)cc1)C1CCCO1` (stereo not shown), 2.5%. For `COc1ccc(S(=O)(=O)N(CC(=O)N(C)Cc2ccccc2)c2ccccc2)cc1` the value was -7.63%; for `Cc1ccc(C)c(S(=O)(=O)NC(C)C(=O)NCc2ccco2)c1` (stereo not shown), -3.43%. As for `Cc1ccc(S(=O)(=O)C2(C(=O)NC3CCCCCC3)CC2)cc1`, the “% Inhibition @ 10 uM” value is reported as -1.92%. Under `CC1(C)CC(CC#N)(c2ccccc2)CCO1` (stereo not shown) stands -4.35%; under `O=C(c1ccccc1Cl)N1CCN(c2ncccn2)CC1`, 2.93%.

On to `CC1CC2=C(CC1(CO)CO)C(C)(C)CCC2` (stereo not shown), for which the “% Inhibition @ 10 uM” value was -5.5%.

For the molecule `CC1CCCN(S(=O)(=O)c2ccc(NC(=O)c3ccc(Cl)cc3)cc2)C1` (stereo not shown), the “% Inhibition @ 10 uM” value is recorded as 1.93%. For `CN1C(=O)N(C)C2(O)c3ccccc3/C(=N\N=C(N)N)C12O` (stereo not shown) the value was 3.34%. Under `COc1ccc(CN2CCN(Cc3ccc(Br)cc3)CC2)cc1` stands -3.13%.
